Data published in article PMC12040169 (PLOS Biology, 2025).
This is one part of the list.

Tested on: T1, C. trachomatis L2/434/Bu expressing GFP (CTL2-GFP)
T1 construct: L2/434/Bu GFP intracellular growth in HeLa cells
Set-up: species or system HeLa; C. trachomatis total inclusion area by high-content imaging, normalised to DMSO
Details: total inclusion area; 28.5 h, 10 µM; inhibitor
Outline: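 Bulk GFP and resorufin signals were read first. Wells were then fixed, stained with Hoechst and imaged to detect GFP inclusions and host nuclei. MICs followed the previously described calculation.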

Structure (SMILES) | % of control remaining
Nc1nc(CSc2nnc(-c3ccncc3)o2)nc(Nc2ccc(F)cc2)n1 [CBK266221] | 109.104
Cc1nc(NS(=O)(=O)c2c(C)noc2C)sc1C(=O)O [CBK045562] | 92.7764
O=C(c1ccccc1F)N1CCCC1c1n[nH]cc1-c1ccncc1 (stereo not shown) [CBK283428] | 124.725
COc1ccc(N2C(=O)C3C(CC(C)C)NC4(C(=O)N(CC(=O)Nc5ccc(C)cc5)c5ccccc54)C3C2=O)cc1 (stereo not shown) [CBK266034] | 111.015
COCCCn1c(=O)[nH]c2ncc(-c3cccc(/C=C/C(=O)O)c3)nc21 [CBK065107] | 129.577
CCN(CC)CCNC(=O)c1cc(O)nc2ccccc12 [CBK269261] | 66.1934
Cc1noc(C)c1Cn1cc(NS(=O)(=O)c2cccs2)cn1 [CBK044394] | 103.898
COCCc1noc(CC2CCN(c3nc(C)cc(C#N)n3)CC2)n1 [CBK304179] | 64.891
Cc1ccc(S(=O)(=O)N2CCN(c3ccc([N+](=O)[O-])c(N4CCN(C)CC4)c3)CC2)cc1 [CBK264795] | 118.366
CCOC1CCCN(C(=O)c2cccnc2Nc2cccc(F)c2)C1 (stereo not shown) [CBK305307] | 81.6633
CCN(CC(=O)N1CCN(C(=O)c2ccc(C)cc2)CC1)C(=O)OC [CBK027051] | 54.8771
NC(=O)CN1CC2(CCN(CCCn3c(=O)[nH]c4ccccc43)CC2)c2ccccc21 [CBK126787] | 84.0606
Cc1ccc(C(=O)NCCC(=O)Nc2ccccc2C)cc1 [CBK268569] | 101.453
CCCCn1nccc1NC(=O)NC(C)c1ccncc1 (stereo not shown) [CBK304840] | 14.7347
CC(=O)Nc1ccc(S(=O)(=O)NCCSc2ccc(C)cc2)cc1 [CBK263563] | 74.1529
CCNc1nc(-c2ccc(Oc3ccccc3)cc2)cn2ccnc12 [CBK066467] | 145.272
Cc1c(-n2nnnc2SC(C)c2ccccc2)c(=O)n(-c2ccccc2)n1C (stereo not shown) [CBK295651] | 75.4175
O=C(CSc1ncnc2c1oc1ccccc12)NC1CCCC1 [CBK287788] | 58.9101
COc1cccc2cc(C(=O)NCc3ccc(Cl)c(Cl)c3)oc12 [CBK149795] | 76.6073
Cn1c(=O)c2c(-c3ccccc3)onc2n(C)c1=O [CBK023569] | 103.632
COC1C(O)C(CO)OC1n1cc(I)c(=O)[nH]c1=O (stereo not shown) [CBK201211] | 73.0467
O=C(NCc1cccs1)OCc1ccccc1 [CBK008074] | 51.7211
Cc1cc(=O)n2c(c1C#N)SCC2 [CBK027807] | 51.2339
O=c1[nH]c2ncc(-c3cccc4ncccc34)nc2n1CCCO [CBK065060] | 109.405
Cc1ccc(C(=O)N/C(=C\c2cccc([N+](=O)[O-])c2)C(=O)NC2CCCCC2)cc1 [CBK261407] | 96.3657
Nc1nc2c(cc1C(=O)NCc1ccccc1)CN(C(=O)CCCc1ccc(F)cc1)CC2 [CBK285887] | 93.525

Structure (SMILES) | % of control remaining
COc1ccc(C(=O)NCC(=O)NCCOC(=O)c2c(-c3c(F)cccc3Cl)noc2C)cc1 [CBK007386] | 116.5
COCCC(=O)NC(Cc1cccs1)c1nccs1 (stereo not shown) [CBK282180] | 101.509
CN(C)C(=O)c1ccc(Cn2nc(NC(=O)OCc3ccccc3)c3ccccc32)cc1 [CBK048578] | 102.832
Cc1c(S(=O)(=O)Nc2ccc3nsnc3c2)cnn1-c1ccccc1 [CBK062229] | 87.4445
Cn1nccc1NS(=O)(=O)c1ccc(-c2cc(C(F)(F)F)on2)s1 [CBK062087] | 92.5617
CC(C)(C)c1csc(Nc2ncc(C(F)(F)F)cc2Cl)n1 [CBK021513] | 103.491
Cc1csc(C(=O)N2CCC(c3cc(O)cc(C)n3)CC2)c1 [CBK283466] | 82.8538
Cn1c(C(N)=O)cc(=O)n1-c1ccc([N+](=O)[O-])cc1 [CBK015873] | 83.2999
CC(NC(=O)c1ncoc1-c1ccc(F)cc1)c1ccncc1 (stereo not shown) [CBK282319] | 81.2148
COc1cc(CNC(=O)NC(=O)C2CCN(CCc3c(-c4ccccc4)[nH]c4ccccc34)CC2)cc(OC)c1OC [CBK034859] | 87.9798
Cc1cccc(-c2n[nH]c(=S)n2CC(=O)NCCCS(=O)(=O)Cc2ccccc2)c1 [CBK297942] | 90.1695
CCOC(=O)c1[nH]c2ccccc2c1NC(=O)c1ccoc1 [CBK160169] | 96.3673
CC1(OCCCO)SC(NC2CCCCCC2)=NC1=O (stereo not shown) [CBK107927] | 96.8602
Cc1ncccc1C(=O)N1CCC(F)CC1 [CBK200398] | 100.605
CCCn1cnc2sc(C(=O)O)c(C)c2c1=O [CBK287199] | 98.1785
CC1CCC(N(C)Cc2nc3sc4c(c3c(=O)[nH]2)CCC4)CC1 (stereo not shown) [CBK305876] | 17.9579
Cc1cc2nc(-c3cc(NC(=O)c4ccc(C)c([N+](=O)[O-])c4)ccc3O)oc2cc1C [CBK262779] | 106.092
CC(C)c1ccc(C(=O)N2CCC(n3cnc4cccnc43)CC2)cc1 [CBK282370] | 106.603
Cc1ccc(S(=O)(=O)Nc2nnc(C3CCCCC3)s2)cc1 [CBK022722] | 103.162
CC(C)Oc1ccc(C2CC(=O)N(c3cccc(C(=O)O)c3)C2=O)cc1 (stereo not shown) [CBK291181] | 124.736
COc1nc(SC)nc2[nH]ccc12 [CBK085861] | 94.4382
Cc1cc(C(=O)NCCCn2ccnc2)no1 [CBK268145] | 104.799
CC(=O)Nc1ccc(NC(=O)CSCc2ccc(Cl)cc2Cl)cc1 [CBK131696] | 88.0467
O=C(COc1ccccc1C1CC(=O)Nc2ccc3ccccc3c21)Nc1ccccc1 (stereo not shown) [CBK265704] | 91.9706
CC1(C)CC(=O)C=C(SCC(=O)C(C)(C)C)S1 [CBK005523] | 17.1542
Cn1cc(C(=O)Nc2cccc(S(=O)(=O)N3CCCCCC3)c2)cn1 [CBK305715] | 53.6886
